According to PubChem BioAssay AID1347073 (National Center for Advancing Translational Sciences (NCATS), 2019):
Among all 45,000 compounds or so, about 200 (0.44%) were called active. About 7% were inconclusive and are not listed. The call rests on the fitted dose curve; in most records, active means well fitted activation curve with a large enough effect; inconclusive means small, poorly fitted or top-dose-only effect; inactive means no such curve, though single readings can be large or run the other way. Some of the results follow.

Test: qHTS of TDP-43 Inhibitors: NCGC Sytravon Library Screen; further: 0% is about no effect; nearly all actives have a fitted effect of over 55% in size
Settings: yeast TDP-43 toxicity rescue, BacTiter-Glo growth, 24 h; series mostly up to 46.1 µM; growth rescue (activation): at the top concentration
Outline: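 TDP-43-expressing yeast, pregrown in raffinose, seeded at OD600 0.02 in galactose medium with compound for 24 hr at 30 deg C. Growth read by BacTiter-Glo luminescence, so rescue of toxicity appears as activation.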

| SMILES | growth rescue (activation) |
| --- | --- |
| O=C(CSc1nnc(COc2ccc(F)cc2)o1)N1CCCCC1 | inactive: 29.9% |
| Cn1c(N)c(C(=O)COC(=O)CNC(=O)c2ccc(Cl)cc2Cl)c(=O)n(C)c1=O | inactive: 6.49% |
| Cc1ccc(S(=O)(=O)CC(c2ccccc2)N2CCCCC2)cc1 (stereo unspecified) | inactive: 0.149% |
| O=C(CCCNS(=O)(=O)c1ccc(F)cc1)Nc1ccc(F)cc1 | inactive: 1.72% |
| Cc1[nH]c2ccc(F)cc2c1CCN1C(=O)OC(C)(C)C1(C)O (stereo unspecified) | inactive: 30% |
| CC1(C(=O)NS(=O)(=O)c2cccs2)CCN1C(=O)CC1CC1 (stereo unspecified) | inactive: 3.25% |
| Cc1cnc(CNC(=O)c2csc([C@@H]3C[C@H](O)[C@@H](CO)O3)n2)cn1 | inactive: 11.2% |
| CCCN1CCN(C(=O)c2cc(COc3ccc(F)cc3F)on2)CC1 | inactive: 21.2% |
| CCn1nnc(NC(=O)c2ccc(-c3ccccc3[N+](=O)[O-])o2)n1 | inactive: 16.2% |
| COCCNC(=S)N/N=C/c1ccc(OCc2ccc(C(=O)OC)cc2)cc1 | inactive: 19.3% |
| COc1cccc(CNC(=S)Nc2cc(C)cc(C)c2)c1 | inactive: 8.54% |
| C=CCOc1c(Cl)cc(CNn2cn[nH]c2=S)cc1OC | inactive: 11.6% |
| Cc1ccc(NC2CCCN(C(=O)CCN3CCCCO3)C2)cc1C (stereo unspecified) | inactive: 6.54% |
| O=C(N[C@@H](Cc1ccccc1)C(=O)O)c1cccs1 | inactive: 11% |
| CCOC(=O)c1c(-c2ccccc2)oc2ccc(OCc3ccc(C)cc3)cc12 | inactive: -4.89% |
| Cc1ccc(NC(=O)N[C@H](C(=O)O)C(C)C)c(C)c1 | inactive: 2.07% |
| CCc1ccccc1N1CC(C(=O)Nc2nccs2)CC1=O (stereo unspecified) | inactive: 4.23% |
| COc1ccc(CCNC(=O)Cc2cccs2)cc1 | inactive: 3.8% |
| CC(OC(=O)c1ccc(O)cc1)C(=O)Nc1ccc(Oc2ccccc2)cc1 (stereo unspecified) | inactive: -14.8% |
| CCN1CCN(C(=O)c2cc(S(=O)(=O)N3CCCCC3)ccc2Cl)CC1 | inactive: 11.5% |
| COc1ccccc1N1CCN(C(=O)CSc2nc(C)cc(=O)[nH]2)CC1 | inactive: 11.6% |
| CC(C)CN(C(=O)CN(C)CC(=O)Nc1ccccc1C#N)c1c(N)n(CC(C)C)c(=O)[nH]c1=O | inactive: -1.07% |

| SMILES | growth rescue (activation) |
| --- | --- |
| CCOC(=O)C(C)Sc1nc2c(c(-c3cccs3)c1C#N)CCC2 (stereo unspecified) | inactive: -4.8% |
| O=C(Nc1nnc([C@@H]2C[C@H](O)[C@@H](CO)O2)s1)NC(c1ccccc1)c1ccccc1 | inactive: 1.81% |
| CCCOc1ccc(-c2nc(SCc3ccccc3)[nH]c(=O)c2C#N)cc1OC | inactive: 8.04% |
| FC(F)(F)c1ccc(NCCc2ccccc2)nc1 | inactive: 10.3% |
| Cc1cc(=O)[nH]c(N/N=C/CCc2ccccc2)n1 | inactive: 9.49% |
| O=C(O)CN(Cc1ccco1)S(=O)(=O)c1ccc(F)cc1 | inactive: 4.56% |
| N/C(=N\OC(=O)COc1cc(Cl)c(Cl)cc1Cl)c1ccccn1 | inactive: 12.4% |
| O=c1[nH]c2ccccc2c2nc(-c3cccc(S(=O)(=O)N4CCCC4)c3)nn12 | inactive: 1.11% |
| COc1ccc(CCNC(=O)COC(=O)c2cccs2)cc1OC | inactive: 4.9% |
| CCN(CC)S(=O)(=O)c1ccc(C(=O)NCC2CCCCC2)cc1 | inactive: 1.83% |
| CCc1ccc(N(C(=O)CNC(=O)c2ccco2)C(C(=O)NCC2CCCO2)c2ccccc2)cc1 (stereo unspecified) | inactive: 0.518% |
| Cc1c(C)c2ccc(O[C@@H]3O[C@H](CO)[C@H](O)[C@H](O)[C@H]3O)c(C)c2oc1=O | inactive: -1.75% |
| O=C(O)CCCn1cc(NC(=O)COc2ccc(F)cc2)cn1 | inactive: -0.508% |
| CCN(CCO)C(=O)c1ccc2nc(Cc3ccc(OC)cc3)oc2c1 | inactive: 7.88% |
| O=C(CSc1nnnn1C1CC1)Nc1cc(S(=O)(=O)N2CCCC2)ccc1Cl | inactive: -2.38% |
| CSc1nc(C)cc(OCC(=O)N/N=C/c2ccccc2O)n1 | inactive: -12.8% |
| Cc1cc(C)nc(NC(=O)Cc2ccc([N+](=O)[O-])cc2)c1 | inactive: 14.8% |
| Cc1c(NC(=O)NC(=O)c2ccc(F)cc2)c(=O)n(-c2ccccc2)n1C | inactive: -7.88% |
| O=C(CNC(=O)c1ccncc1)N/N=C/c1cccc([N+](=O)[O-])c1 | inactive: 0.347% |
| O=C(CCCc1nc2ccccc2s1)NC1CCOC1=O (stereo unspecified) | inactive: -5.94% |
| COc1ccccc1NC(=O)Cc1noc(CSc2nnc(C(F)(F)F)n2C)n1 | inactive: 1.99% |
| CCOC(=O)C1=C(O)C(=O)N(c2ccc(S(N)(=O)=O)cc2)C1c1cccc([N+](=O)[O-])c1 (stereo unspecified) | inactive: -5.7% |

| SMILES | growth rescue (activation) |
| --- | --- |
| CCCCC(=O)N(C)c1c(CC)nc2c(OCc3ccc(C(F)(F)F)cc3)cccn12 | inactive: 3.46% |
| O=C(CSc1nnc(NC(=O)C2CCC2)s1)Nc1ccccc1 | inactive: 10.4% |
| O=C(NN=C1CCCC1)c1sc2ccccc2c1Cl | inactive: 22.2% |
| COc1ccc(NC(=O)c2c(Cl)nc3ccccn23)cc1 | inactive: 19.1% |
| CCc1ccc2c(c1)c(N=NC1=NC(=O)CS1)c(O)n2C | inactive: -2.3% |
| CCS(=O)(=O)c1c(S(=O)(=O)CC)c2ccccn2c1C(N)=O | inactive: -2.32% |
| Cc1ccnn1-c1ccc(C(=O)NCc2ccccc2CN2CCOCC2)cc1 | inactive: -3.81% |
| N#Cc1nc(Cc2cccc3ccccc23)oc1N1CCC(C(N)=O)CC1 | inactive: 13.5% |
| NC(=O)CN1C(=O)/C(=c2\sc3nc(=O)c(Cc4ccccc4)nn3c2=O)c2ccccc21 | inactive: 8.7% |
| CCOc1ccccc1OCCCC(=O)NNC(=O)c1ccc(F)cc1 | inactive: -2.76% |
| O=C(NC(=S)NCc1ccc(Cl)cc1Cl)c1ccco1 | inactive: 15.9% |
| COc1cc(C)c(CN2CCN(C(C)C(=O)NC(C)c3ccccc3)CC2)cc1OC (stereo unspecified) | inactive: 3% |
| COc1cc(CCC(=O)Nc2nnc(C)s2)cc(OC)c1OC | inactive: 3.64% |
| Cc1cc(CNC(=O)CCc2nnc(CCCc3ccccc3)o2)nn1C | inactive: 12.7% |
| CCCN(CCC)CCNC(=O)c1cc2c(=O)n(CC)c3ccccc3c2s1 | inactive: -11.6% |
| CS(=O)(=O)c1ccccc1C(=O)NCCC(c1ccccc1)c1ccccc1 | inactive: -12.5% |
| Cc1cccc(NC(=S)N(Cc2ccc(Br)cc2)Cc2ccc(C(=O)O)cc2)c1 | inactive: -5.24% |
| Cc1nc(-c2ccncc2)sc1C(=O)Nc1ccc(Br)cc1 | inactive: 13.2% |
| N#CC(C#N)=Cc1ccc(-c2ccc(S(=O)(=O)N=C(N)N)cc2)o1 | inactive: 3.66% |
| C/C(N)=C(/C#N)C(=O)COC(=O)c1ccccc1Cc1ccccc1 | inactive: 18.8% |
| O=C(Nc1cccc(Cl)c1)Nc1nnc(-c2ccncc2)s1 | inactive: 15.7% |
| Cc1ccc(N=Nc2c(N)n[nH]c2N)cc1 | inactive: -1.82% |

| SMILES | growth rescue (activation) |
| --- | --- |
| COc1ccc(NC(=O)CN2C(=O)NC3(CCCC3)C2=O)cc1 | inactive: 1.37% |
| CN(C(=O)CSc1cccc[n+]1[O-])C1CCCCC1 | inactive: 36.5% |
| O=C(NCc1c(F)cccc1F)c1cc(COc2c(F)cccc2F)on1 | inactive: -2.23% |
| COc1ccc(S(=O)(=O)N2CCC(C(=O)N3CCOCC3)CC2)cc1Cl | inactive: 6.22% |
| O=C1NC(=O)C2C1C(c1cccs1)NN2Cc1ccccc1 (stereo unspecified) | inactive: 1.52% |
| CCOC(=O)C(=O)NN=C(c1ccccc1)c1ccccc1 | inactive: 9.89% |
| CSCC[C@H](NC(=O)c1cccc(S(=O)(=O)N2CCCCC2)c1)c1nc2ccccc2[nH]1 | inactive: 9.24% |
| CCCC(CCC(=O)Nc1cc([N+](=O)[O-])ccc1O)C(=O)O (stereo unspecified) | inactive: -12.9% |
| COCCn1c(N)c(NCc2ccccc2)c(=O)[nH]c1=O | inactive: 5.19% |
| Cc1cc(CCC(=O)O)c(C)cc1CCC(=O)O | inactive: 16.6% |
| O=C(c1cc(Sc2cccc(Cl)c2)nc2ccccc12)N1CCN(c2ccccn2)CC1 | inactive: -20.1% |
| CC(C(=O)c1ccc(-c2ccccc2)cc1)[n+]1cccc(NC(=O)c2ccccc2)c1 (stereo unspecified) | inactive: 15% |
| NC(=O)c1cccc(-c2ccnc3c2CC(C(=O)Nc2ccccc2)O3)c1 (stereo unspecified) | inactive: -8.13% |
| CC1(C(=O)NS(=O)(=O)Cc2cccc(Cl)c2)CCN1C(=O)CC1CCCC1 (stereo unspecified) | inactive: -9.65% |
| CCOc1cc(C2C(C(=O)c3ccco3)=C(O)C(=O)N2CC2CCCO2)ccc1O (stereo unspecified) | inactive: -8.77% |
| CCOc1ccc(C2C(C(=O)c3ccco3)=C(O)C(=O)N2Cc2cccnc2)cc1OC (stereo unspecified) | inactive: 4.33% |
| S=C(NC1CC1)NC1CCCc2ccccc21 (stereo unspecified) | inactive: -5.85% |
| CCOC(=O)CNC(=S)N(CCCN1CCCC1)Cc1cccs1 | inactive: 7.55% |
| COc1ccc(N2CCN(C(=O)CCCCn3c(=O)[nH]c4ccsc4c3=O)CC2)cc1 | inactive: 9.1% |
| CSCCC(NC(=O)c1ccc(Cl)cc1)C(=O)OCC(=O)Nc1ccc(C#N)cc1 (stereo unspecified) | inactive: -38.3% |
| Cc1ccc(NS(=O)(=O)c2ccc(C(=O)OCC(=O)NCC3CCCO3)cc2)cc1 (stereo unspecified) | inactive: 8.75% |
| O=C1c2ccccc2NC(c2ccccc2)N1NS(=O)(=O)c1ccccc1 (stereo unspecified) | inactive: 13.9% |

| SMILES | growth rescue (activation) |
| --- | --- |
| Cc1ccc(Cl)cc1N1CCN(C(=O)c2ccc3nc[nH]c3c2)CC1 | inactive: 26.7% |
| CC1(C)C(CSc2nc3ccccc3[nH]2)C1(Cl)Cl (stereo unspecified) | inactive: -10.6% |
| C=CCn1c2ccccc2c2nnc(SCCCn3c(=O)[nH]c4ccccc43)nc21 | inactive: 22.6% |
| O=C(/C=C/c1ccco1)NCCCN1CCN(CCCNC(=O)/C=C/c2ccco2)CC1 | inactive: -2.98% |
| C=CCN(c1ccc(C(=O)Nc2cccc(C)c2)cc1)S(C)(=O)=O | inactive: -4.13% |
| CC(C)(C)SC(C(=O)N1CCOCC1)c1ccc(Br)cc1 (stereo unspecified) | inactive: 18.4% |
| CCCNS(=O)(=O)c1ccc(OCC(=O)N2CCN(c3ccccc3)CC2)cc1 | inactive: -3.83% |
| CCc1nnc(NC(=O)CSc2nnc(C(C)NC(=O)c3ccccc3)n2C)s1 (stereo unspecified) | inactive: -0.281% |
| CCOCCOC(=O)c1[nH]c2c(c1C)C(=O)CC(c1cccs1)C2 (stereo unspecified) | inactive: 18.7% |
| Cc1ccc(C(=O)NCC(=O)N2CCC(Cc3ccccc3)CC2)cc1 | inactive: -7.35% |
| O=C(Nc1ccccc1Br)c1cc(=O)c2ccccc2o1 | inactive: 6.84% |
| c1ccc2c(C3=NNC(=NC4CC4)SC3)c[nH]c2c1 | inactive: 18.1% |
| CCC(=O)Nc1ccc(-c2cc3ccccc3oc2=O)cc1 | inactive: -6.25% |
| CCOC(=O)C(/C=C(\C#N)C(=O)OCC)=C(/N)N1CCN(c2c(C)cccc2C)CC1 | inactive: -4.01% |
| O=C(COC(=O)C1CCN(S(=O)(=O)c2ccc3c(c2)OCCO3)CC1)Nc1cc(C(F)(F)F)ccc1Cl | inactive: 7.35% |
| CCc1ccc2n(-c3ccc(OC)cc3)c([S-])c(C(=O)Nc3cc(C)cc(C)c3)[n+]2c1 | inactive: 3.95% |
| O=C(COC(=O)CNC(=O)c1cccc([N+](=O)[O-])c1)Nc1cccc(S(=O)(=O)N2CCCCC2)c1 | inactive: 12.3% |
| O=C(Nc1ccccc1C(=O)N1CCOCC1)C1CC(=O)N(c2ccc(F)cc2)C1 (stereo unspecified) | inactive: 1.26% |
